PubChem BioAssay AID624417 (National Center for Advancing Translational Sciences (NCATS), 2012)
In all, about 410,000 compounds went through this assay and about 6,400 (1.6%) were called active. Inconclusive results, whose numbers are uncertain, are shown with a selection of clear calls. Calls follow the shape of the dose curve; as a rule, active = well fitted inhibition curve with a large enough effect; inconclusive = small, poorly fitted or top-dose-only effect; inactive = no such curve, though single readings can be large or run the other way. Where the call is inconclusive, the potency comes from a doubtful curve fit.

Target: Glucagon-like peptide 1 receptor (Homo sapiens) (UniProt P43220)
Experiment: qHTS of GLP-1 Receptor Inverse Agonists (Inhibition Mode); also: nearly all actives have a fitted effect of over 55% in size
Conditions: HEK293 GLP-1R CRE-luciferase, luminescence, 24 h, GLP-1R form is constitutively active; activity change, negative = inhibition: at 38.3 µM (top of the series) unless noted
How it was run: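 Inverse agonists were sought by their lowering of basal cAMP reporter luciferase output in HEK293 cells stably carrying constitutively active human GLP-1R, after 24 h compound treatment.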
% is scaled to controls: 0 for no effect and ±100 for the full control effect; potency is read from the fitted curve at half-maximal effect; tags tell the direction and shape of the fitted curve.

Sequence of UniProt P43220 (P43220 whole entry, looked up): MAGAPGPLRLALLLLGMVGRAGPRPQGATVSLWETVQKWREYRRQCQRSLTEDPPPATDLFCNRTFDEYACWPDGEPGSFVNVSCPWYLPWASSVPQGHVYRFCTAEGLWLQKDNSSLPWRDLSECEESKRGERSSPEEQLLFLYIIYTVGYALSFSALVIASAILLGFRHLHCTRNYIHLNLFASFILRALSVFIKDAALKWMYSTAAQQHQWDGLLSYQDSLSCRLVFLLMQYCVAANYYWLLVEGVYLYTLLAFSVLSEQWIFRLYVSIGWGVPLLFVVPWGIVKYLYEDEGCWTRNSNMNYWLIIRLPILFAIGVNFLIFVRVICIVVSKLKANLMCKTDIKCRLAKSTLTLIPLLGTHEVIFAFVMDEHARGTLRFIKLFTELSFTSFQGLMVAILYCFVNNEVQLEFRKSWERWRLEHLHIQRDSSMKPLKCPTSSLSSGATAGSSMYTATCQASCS

| Compound | Potency | activity change, negative = inhibition |
| --- | --- | --- |
| CCOCCCN(C)C1CCN(C(=O)c2oc3ccccc3c2NC(=O)COc2cccc(C)c2)CC1 | inconclusive: 10 µM [inhibitor, partial curve, poor fit] |  |
| Cc1ccc(NC(=O)c2cc(S(=O)(=O)N3CCOCC3)cn2C)cc1F |  | inactive: -2.44% |
| S=C(NCCc1ccc(Cl)cc1)NC1CC1 | inconclusive: 28.2 µM [inhibitor, single point] |  |
| Cc1onc(-c2ccccc2)c1C(=O)Nc1ccncc1 |  | inactive: 10.5% |
| NCc1csc(NC(=O)Nc2cccc(C(F)(F)F)c2)n1 | inconclusive: 31.6 µM [inhibitor, single point] |  |
| CN(C)CCn1c(=O)n(Cc2ccccc2)c(=O)c2c3c(sc21)CCCCC3 |  | inactive: -22.8% |
| CC1(C)CN(c2ccccc2)N(Cc2ccc(F)cc2)C1=O | inconclusive: 31.6 µM [inhibitor, single point] |  |
| CC(=O)Nc1ccc(N2CCCC(C)C2)c([N+](=O)[O-])c1 (configuration not stated) | inconclusive: 12.6 µM [inhibitor, single point] |  |
| CCOc1ccc2nc(NC(=O)CN3CCN(CC)CC3)sc2c1 | inconclusive: 15.8 µM [inhibitor, partial curve, poor fit] |  |
| COc1cc(CNCCc2c[nH]c3ccccc23)cc(Cl)c1OCC(N)=O |  | inconclusive: -43.3% [inhibitor] [at 7.66 µM] |
| Cc1csc(NC(=O)C2COc3ccccc3O2)n1 (configuration not stated) | inconclusive: 12.6 µM [inhibitor, single point] |  |
| Cn1c(=O)c2nc(SCC(=O)Nc3ccc(Cl)c(Cl)c3)n(C)c2n(C)c1=O |  | inactive: -2.79% |
| CC(=O)N1CC2(CC(c3ccccc3C(F)(F)F)=NO2)CN1c1ccc(Cl)cc1 (configuration not stated) | inconclusive: 22.4 µM [inhibitor, single point] |  |
| FC(F)(F)c1ccc(-c2noc(CN3CCCN(C4CCCCC4)CC3)n2)cc1 | inconclusive: 10 µM [inhibitor, partial curve, poor fit] |  |
| CCN(CC)S(=O)(=O)c1cccc(C(=O)N[C@H](C(=O)NCc2ccc(Cl)cc2)C(C)C)c1 | active: 12.6 µM |  |
| CC(C)C[C@H](NC(=O)c1nc[nH]c1C(=O)NC1CCNCC1)C(=O)OC(C)(C)C | inconclusive: 15.8 µM [inhibitor, single point] |  |
| O=C(CN(c1ccc(Cl)c(Cl)c1)S(=O)(=O)c1ccccc1)N1CCc2ccccc2C1 | inconclusive: 7.08 µM [inhibitor, partial curve, poor fit] |  |
| c1ccc(C2CC(c3cccs3)=NN2c2ccccc2)cc1 (configuration not stated) | active: 10 µM |  |
| Cc1ccc(CN(Cc2ccco2)c2cnc(S(C)(=O)=O)nc2C(=O)Nc2ccccc2Br)o1 | inconclusive: 28.2 µM [inhibitor, single point] |  |
| CCCCC(CC)CN=C(N)NC(N)=NCCCCCCN=C(N)NC(N)=NCC(CC)CCCC (configuration not stated) | inconclusive: 11.2 µM [inhibitor, partial curve, poor fit] |  |
| CCCCCCCC(=O)N/N=C/c1ccco1 | inconclusive: 7.94 µM [inhibitor, partial curve] |  |
| COC(=O)c1ccc(OC(=O)c2ccco2)cc1 | inconclusive: 3.16 µM [inhibitor, partial curve, poor fit] |  |
| COc1ccccc1N1CCN(C(=O)C2CCCN(S(=O)(=O)c3ccc(C)cc3)C2)CC1 (configuration not stated) | inconclusive: 25.1 µM [inhibitor, single point] |  |

| Compound | Potency | activity change, negative = inhibition |
| --- | --- | --- |
| CCc1ccc(C2CC(=O)Oc3c2c(=O)n(C)c2ccccc32)cc1 (configuration not stated) |  | inactive: -8.53% |
| S=C(NCc1ccco1)N1CCN(C/C=C/c2ccccc2)CC1 | inconclusive: 28.2 µM [inhibitor, partial curve, poor fit] |  |
| COC(C(=O)Nc1ccc(F)cc1)c1ccccc1 (configuration not stated) |  | inactive: -26.4% |
| CCCCc1ccc(NC(=O)C2(C)Cc3ccccc3C(=O)O2)cc1 (configuration not stated) | inconclusive: 11.2 µM [inhibitor, partial curve, poor fit] |  |
| COc1ccc2nc(SCc3ccccc3)nc(C)c2c1 | inconclusive: 22.4 µM [inhibitor, single point] |  |
| O=C(Nc1cccc(Cl)c1)c1ccncc1 |  | inactive: 17.6% |
| O=C(O)c1cc(-c2ccccc2)on1 |  | inactive: 1.39% |
| CC1C(=O)N(Cc2cn(CCC3OCCO3)nn2)CCS(=O)(=O)N1Cc1ccc(-c2ccc(F)cc2)cc1 (configuration not stated) | inconclusive: 28.2 µM [inhibitor, single point] |  |
| S=c1[nH]nc(COc2ccc(Cl)cc2)n1-c1ccc(Cl)cc1 |  | inactive: -28.4% |
| O=C(Cn1c(-c2cccs2)cc2cc(F)ccc21)N1CCCCC1 | inconclusive: 28.2 µM [inhibitor, single point] |  |
| CC(C)Nc1oc(Cc2cccc3ccccc23)nc1C#N | inconclusive: 20 µM [inhibitor, single point] |  |
| CC(C)CN(CC(C)C)S(=O)(=O)c1ccc(C(=O)Nc2sc3c(c2C(N)=O)CCN(C(C)C)C3)cc1 |  | inactive: -12.2% |
| O=C1NC(=O)C(c2ccccc2)(c2ccccc2)N1S(=O)(=O)c1ccccc1 | inconclusive: 10 µM [inhibitor, partial curve, poor fit] |  |
| CCC(c1nnnn1C1CCCC1)N(Cc1cccs1)Cc1cc2cccc(C)c2[nH]c1=O (configuration not stated) | inconclusive: 7.08 µM [inhibitor, partial curve, poor fit] |  |
| C=C1C(=O)O[C@H]2C1CC[C@@](C)(O)C13C=CC(C)(C21)C1(C3)C(=O)O[C@@H]2C3C(C)=CCC3[C@](C)(O)C[C@H](OC(C)=O)C21 (some centres not stated) | inconclusive: 28.2 µM [inhibitor, single point] |  |
| N#Cc1ccsc1NC(=O)CN1CCN(S(=O)(=O)c2cc(Cl)ccc2Cl)CC1 | inconclusive: 12.6 µM [inhibitor, single point] |  |
| CCc1ccc(-c2cc(C)no2)cc1S(=O)(=O)N1CCN(c2cccc(C)c2C)CC1 | active: 7.94 µM |  |
| CCOC(=O)c1ccc(Nc2nc3ccccc3n3c(C)nnc23)cc1 |  | inactive: 8.23% |
| CCOC(=O)c1cccc(NC(=O)CC2C(=O)N(c3ccc(F)cc3)C(=O)N2Cc2cccc(OC)c2)c1 (configuration not stated) | inconclusive: 8.91 µM [inhibitor, partial curve, poor fit] |  |
| COc1ccc2ccccc2c1CNCc1ccc(C)cc1 | active: 10 µM |  |
| CC1(C(=O)Nc2ccc(Cl)c(Cl)c2)CCN1C(=O)C1CCCCC1 (configuration not stated) | inconclusive: 28.2 µM [inhibitor, single point] |  |
| O=C(CO/N=C/c1cccc([N+](=O)[O-])c1)NC1CCCCCC1 | inconclusive: 31.6 µM [inhibitor, partial curve, poor fit] |  |
| O=C(CN1CCN(S(=O)(=O)c2ccc(Br)cc2)CC1)N/N=C/c1cc([N+](=O)[O-])ccc1Cl | inconclusive: 11.2 µM [inhibitor, single point] |  |

| Compound | Potency | activity change, negative = inhibition |
| --- | --- | --- |
| C=CCNC(=O)c1onc(CSc2ccccc2C)c1C(=O)O | inconclusive: 28.2 µM [inhibitor, single point] |  |
| O=[N+]([O-])C(/C=C(/Cl)[N+](=O)[O-])=C(N1CCCCC1)N1CCCCC1 |  | inactive: 5.43% |
| COc1ccc2nc(SCC(=O)NCc3ccc(OC)c(OC)c3)[nH]c2c1 |  | inactive: -4.12% |
| COC(=O)c1ccc(C(=O)OC)c(NC(=O)c2cnn3c(C(F)F)cc(-c4ccc(C)cc4)nc23)c1 |  | inactive: 8.6% |
| COc1ccc(Cl)cc1NC(=O)CC(C)c1ccccc1 (configuration not stated) | inconclusive: 7.08 µM [inhibitor, partial curve, poor fit] |  |
| Cc1ccc(NC(=O)C2CCCN(c3ncnc4c3nc3n4CCCCC3)C2)cc1Cl (configuration not stated) | inconclusive: 1.58 µM [inhibitor, full curve, poor fit] |  |
| O=C(CN1C(=O)COc2ccccc21)NCCN1CCC(Cc2ccccc2)CC1 |  | inactive: 0% |
| CCc1nnc(NC(=O)CSc2nc(-c3ccc(F)cc3)cc(-c3ccccc3)c2C#N)s1 |  | inactive: -9.88% |
| Cc1cc(/C=C(/C#N)c2nc3ccccc3[nH]2)c(C)n1-c1cc(C(=O)O)cc(C(=O)O)c1 |  | inactive: 9.35% |
| COc1cc(/C=N/OCC(=O)NC23CC4CC(CC(C4)C2)C3)ccc1OCc1ccccc1 | inconclusive: 11.2 µM [inhibitor, partial curve, poor fit] |  |
| O=C(Nc1c(C(=O)N2CCN(c3ccccc3)CC2)oc2ccccc12)c1ccccc1F | inconclusive: 11.2 µM [inhibitor, single point] |  |
| Cc1ccc(C(C(=O)NC(C)(C)C)N(Cc2cccs2)C(=O)c2ccc3c(c2)OCCO3)cc1 (configuration not stated) | inconclusive: 28.2 µM [inhibitor, single point] |  |
| CCn1c(CNc2ccc(C)cc2C)nnc1SCC(=O)N1CCCc2ccccc21 | inconclusive: 7.94 µM [inhibitor, partial curve, poor fit] |  |
| O=C(Nc1nc(-c2cc(Cl)sc2Cl)cs1)c1cccs1 | inconclusive: 28.2 µM [inhibitor, single point] |  |
| N#Cc1c(NC(=O)c2ccc(Cn3cc(Br)cn3)o2)sc2c1CCCCC2 | inconclusive: 10 µM [inhibitor, partial curve, poor fit] |  |
| COc1ccc2nc(C)cc(Nc3ccc(C(=O)O)cc3)c2c1 |  | inactive: -7.08% |
| CC1CC(=O)N(CC(=O)Nc2ccc(OC(F)(F)F)cc2)c2ccccc2S1 (configuration not stated) | inconclusive: 10 µM [inhibitor, single point] |  |
| O=C(NCC1CCCO1)c1sc2cc(Cl)ccc2c1Cl (configuration not stated) |  | inactive: 28% |
| CC(=C\c1ccccc1)/C=C1/SC(=S)N(C(C(=O)O)C(C)C)C1=O (configuration not stated) |  | inactive: -13.4% |
| CC1CN(c2ccc(NC(=S)Nc3ccc(N4CC(C)OC(C)C4)cc3)cc2)CC(C)O1 (configuration not stated) | inconclusive: 15.8 µM [inhibitor, partial curve, poor fit] |  |
| COc1cccc(N2CCN(c3ncnc4c3[nH]c3ccc(F)cc34)CC2C)c1 (configuration not stated) | inconclusive: 2.82 µM [inhibitor, full curve, poor fit] |  |
